Laboratory results published in paper PMC4336329 (PLoS ONE, 2015).
Among all 310,000 compounds or so, about 14,000 (4.5%) showed an effect of 50% or more. The effect is printed as a negative number. Some of the results follow.

target: human ether-à-go-go-related gene (hERG) potassium channel (human, UniProt Q12809); assay: primary screen, population patch clamp on CHO cells stably expressing hERG
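Also: peak tail current of the secondary pulse compared with the same well before compound.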

Chain of human ether-à-go-go-related gene (hERG) potassium channel (Q12809 whole entry, looked up): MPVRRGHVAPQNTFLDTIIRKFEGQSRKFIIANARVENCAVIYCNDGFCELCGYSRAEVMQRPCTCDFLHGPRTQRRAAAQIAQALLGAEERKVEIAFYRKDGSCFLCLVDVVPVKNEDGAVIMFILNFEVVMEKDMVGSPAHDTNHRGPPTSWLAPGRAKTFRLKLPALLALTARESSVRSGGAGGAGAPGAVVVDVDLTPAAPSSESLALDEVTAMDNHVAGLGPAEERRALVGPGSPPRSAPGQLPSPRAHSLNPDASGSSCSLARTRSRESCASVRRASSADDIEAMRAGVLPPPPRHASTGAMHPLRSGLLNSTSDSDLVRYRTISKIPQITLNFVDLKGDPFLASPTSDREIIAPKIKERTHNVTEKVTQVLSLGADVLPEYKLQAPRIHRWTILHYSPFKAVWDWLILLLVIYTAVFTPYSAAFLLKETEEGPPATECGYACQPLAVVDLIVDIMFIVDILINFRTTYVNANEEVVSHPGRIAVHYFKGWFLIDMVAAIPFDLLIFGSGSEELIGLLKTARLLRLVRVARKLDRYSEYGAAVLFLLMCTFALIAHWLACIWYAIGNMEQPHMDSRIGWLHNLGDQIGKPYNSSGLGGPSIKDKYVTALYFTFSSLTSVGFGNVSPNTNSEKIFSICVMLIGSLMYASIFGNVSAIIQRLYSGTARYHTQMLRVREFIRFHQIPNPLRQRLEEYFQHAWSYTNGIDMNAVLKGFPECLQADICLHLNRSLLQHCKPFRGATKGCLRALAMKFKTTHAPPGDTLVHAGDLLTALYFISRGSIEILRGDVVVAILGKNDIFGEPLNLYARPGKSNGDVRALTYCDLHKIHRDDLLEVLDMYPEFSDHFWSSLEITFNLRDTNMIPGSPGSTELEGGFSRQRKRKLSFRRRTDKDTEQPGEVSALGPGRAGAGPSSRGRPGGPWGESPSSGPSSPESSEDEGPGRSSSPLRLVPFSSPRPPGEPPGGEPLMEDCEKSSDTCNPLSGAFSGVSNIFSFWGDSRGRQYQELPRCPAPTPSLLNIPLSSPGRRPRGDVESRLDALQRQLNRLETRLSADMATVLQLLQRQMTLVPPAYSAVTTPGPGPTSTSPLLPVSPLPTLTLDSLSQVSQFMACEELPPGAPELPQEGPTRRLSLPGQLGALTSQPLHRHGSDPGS

Row | Compound | hERG current change (%, negative = inhibition) at 10uM
1 | Cc1ccccc1NS(=O)(=O)c1ccc(C)c(C(N)=O)c1 | -3.94%
2 | CCCn1nc2cc(C(=O)NCc3ccc(OC(F)(F)F)cc3)ccc2c1OCC | 14.3%
3 | Cl.Clc1cccc(-c2ccc(CNCc3ccccn3)o2)c1 | -16.2%
4 | CCn1c(=O)n(CC(=O)N(C)Cc2ccccc2)c(=O)c2ccccc21 | -9.11%
5 | CCOc1ccccc1CNC(=O)c1cc2oc3ccccc3c2n1C | -6.27%
6 | COc1cc2[nH]c(=O)n(Cc3ccc(C(=O)NC4CCN(Cc5ccccc5)CC4)cc3)c(=O)c2cc1OC | 17.6%
7 | Cc1cc(C)nc(/N=C(\N)Nc2cc([N+](=O)[O-])ccc2C)n1 | -49%
8 | O=C(Nc1nncs1)Oc1ccccc1 | 8.98%
9 | NC(N)=NCC(O)CN(c1ccccc1)c1ccccc1.O=S(=O)(O)O (centres unmarked) | -1.09%
10 | CC1CCCN(C(=O)CCS(=O)(=O)c2ccc3c(c2)n(C)c(=O)c(=O)n3C)C1 (centres unmarked) | 1.25%
11 | CCSc1nnc(NC(=O)C(C)Sc2nc3ccccc3[nH]2)s1 (centres unmarked) | -3.15%
12 | CN1C2CCC1CC(NC(=O)c1cc(Cl)cc3[nH]cnc13)C2 (centres unmarked) | 4.12%
13 | O=C(NC1CCCC1)c1cc(-c2ccccc2Cl)on1 | 10.5%
14 | CCOc1ccccc1C(=O)Nc1ccc(S(=O)(=O)Nc2cc(OC)nc(OC)n2)cc1 | -3.54%
15 | O=C1c2ccccc2C(=O)C12OC(c1ccccc1)C1(C(=O)c3ccccc3C1=O)C2c1ccc([N+](=O)[O-])cc1 (centres unmarked) | 20.5%
16 | CN(C)S(=O)(=O)c1cccc(NC(=O)c2ccc(-n3cncn3)c([N+](=O)[O-])c2)c1 | -18%
17 | Cc1c(C(=O)OCC(=O)N2CC(C)OC(C)C2)oc2ccc(Br)cc12 (centres unmarked) | -19.6%
18 | CCOC(=O)CSc1nc2ccccc2c(=O)n1CCN1CCOCC1 | -50.3%
19 | COC(=O)CNC(=O)CSc1nc2c(sc(=S)n2-c2ccccc2)c(=O)[nH]1 | 19%
20 | COC(=O)c1ccccc1NC(=O)COc1ccc(S(=O)(=O)N2CCCC2)cc1C | 8.37%
21 | CCn1c(CSCc2ccc(C)cc2)nnc1SCC(=O)N1CCN(c2ccccc2)CC1 | -45.4%
22 | CCOc1ccc(NC(=O)CC(C)S(=O)(=O)c2ccc3c(c2)NC(=O)CO3)cc1 (centres unmarked) | 5.66%
23 | O=C(Cc1ccccc1C(=O)O)Nc1cccc2ccccc12 | 16.5%
